Laboratory results taken from publication PMC4336329 (PLoS ONE, 2015).
Out of some 310,000 compounds screened, about 2,200 (0.71%) showed an effect of 50% or more. The effect is printed as a negative number. The list shows a part of the results.

What follows are molecules tested against human ether-à-go-go-related gene (hERG) potassium channel (human, UniProt Q12809) (assay: primary screen, population patch clamp on CHO cells stably expressing hERG).
human ether-à-go-go-related gene (hERG) potassium channel, sequence (Q12809 whole entry, looked up): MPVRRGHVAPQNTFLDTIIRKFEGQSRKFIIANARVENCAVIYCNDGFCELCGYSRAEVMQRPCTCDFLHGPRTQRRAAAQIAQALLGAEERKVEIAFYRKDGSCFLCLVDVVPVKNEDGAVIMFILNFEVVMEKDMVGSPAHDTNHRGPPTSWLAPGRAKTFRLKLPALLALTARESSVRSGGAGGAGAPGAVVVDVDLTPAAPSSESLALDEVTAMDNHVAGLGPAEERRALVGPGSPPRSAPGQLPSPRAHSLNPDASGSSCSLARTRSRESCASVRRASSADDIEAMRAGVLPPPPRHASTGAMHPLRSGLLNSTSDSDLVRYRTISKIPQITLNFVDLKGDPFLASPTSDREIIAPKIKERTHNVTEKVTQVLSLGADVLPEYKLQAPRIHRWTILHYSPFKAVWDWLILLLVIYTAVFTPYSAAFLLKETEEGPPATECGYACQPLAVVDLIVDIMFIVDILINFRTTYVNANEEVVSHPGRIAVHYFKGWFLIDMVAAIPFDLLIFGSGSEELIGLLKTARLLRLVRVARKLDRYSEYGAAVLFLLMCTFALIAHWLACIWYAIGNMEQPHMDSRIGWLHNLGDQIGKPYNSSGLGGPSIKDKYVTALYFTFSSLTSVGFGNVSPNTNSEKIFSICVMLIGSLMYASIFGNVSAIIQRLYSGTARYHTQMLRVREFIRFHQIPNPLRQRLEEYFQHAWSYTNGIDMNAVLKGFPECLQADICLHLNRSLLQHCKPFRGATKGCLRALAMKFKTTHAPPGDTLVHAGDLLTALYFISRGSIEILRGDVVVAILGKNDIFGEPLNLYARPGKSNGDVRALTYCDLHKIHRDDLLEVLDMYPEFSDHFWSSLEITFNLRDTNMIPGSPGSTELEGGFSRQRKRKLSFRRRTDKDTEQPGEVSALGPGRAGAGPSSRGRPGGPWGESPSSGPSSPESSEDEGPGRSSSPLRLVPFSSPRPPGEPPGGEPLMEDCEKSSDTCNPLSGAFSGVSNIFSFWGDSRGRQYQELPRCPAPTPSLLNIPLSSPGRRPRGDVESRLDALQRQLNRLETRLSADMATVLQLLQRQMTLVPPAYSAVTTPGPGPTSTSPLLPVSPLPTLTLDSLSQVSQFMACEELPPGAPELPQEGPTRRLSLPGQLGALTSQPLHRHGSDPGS
For `CCOc1cc(/C=C2/C(=N)N3C(=NC2=O)SN=C3S(C)(=O)=O)ccc1OC(=O)c1ccco1`, the “hERG current change (%, negative = inhibition) at 1uM” value was 13.4%. In the case of `CCCCn1c(N)c(N(CCOC)C(=O)C2CCN(C(=O)c3ccc(F)cc3)CC2)c(=O)[nH]c1=O`, the “hERG current change (%, negative = inhibition) at 1uM” value was 17.2%. With `Cc1c(NC(=O)c2cc3c(s2)-c2ccccc2OC3)cccc1[N+](=O)[O-]` the “hERG current change (%, negative = inhibition) at 1uM” value was 3.9%. `CCCCCn1c(=S)[nH]c2cc(C(=O)N3CCN(C(=O)OCC)CC3)ccc2c1=O` was tested, and the “hERG current change (%, negative = inhibition) at 1uM” value was 10.3%. With `Cc1cn(CC(=O)c2ccccc2)c2ccccc12` the “hERG current change (%, negative = inhibition) at 1uM” value was 15%. With `O=C(c1ccccc1)c1cnc(-c2ccccc2)s1` the “hERG current change (%, negative = inhibition) at 1uM” value was 21.3%. For `CSc1cccc(NC(=O)Cn2cnc(S(=O)(=O)N3CCCC3)c2)c1`, the “hERG current change (%, negative = inhibition) at 1uM” value was 17.7%. With `O=C(C1CCN(S(=O)(=O)c2cccc3cccnc23)CC1)N1CCN(c2ccc(Cl)cc2)CC1` the “hERG current change (%, negative = inhibition) at 1uM” value was 5.45%. `Cc1ccc(N(CC(=O)NC2CCCC2)C(=O)CCC(=O)Nc2ccccn2)cc1` was tested, and the “hERG current change (%, negative = inhibition) at 1uM” value was 3.06%. In the case of `COc1ccc(NC(=O)c2cc3ccccc3o/c2=N\NS(=O)(=O)c2ccc(C)cc2)cc1`, the “hERG current change (%, negative = inhibition) at 1uM” value was -7.26%. For `Cl.O=C(CNCc1ccco1)Nc1ccccc1-n1cccc1`, the “hERG current change (%, negative = inhibition) at 1uM” value was 13.8%. For `CC1CCCCN1C(=O)c1cc(-c2ccc3c(c2)OCO3)on1` (stereo not shown), the “hERG current change (%, negative = inhibition) at 1uM” value was 4.7%. For `COc1cc(OC)cc(C(=O)N[C@H](C(=O)OCC(=O)Nc2cccnc2Cl)C(C)C)c1`, the “hERG current change (%, negative = inhibition) at 1uM” value was 8.87%. For `Cn1ccsc1=NC(=O)c1ccccc1F`, the “hERG current change (%, negative = inhibition) at 1uM” value was 17.3%. `CC1Cc2ccccc2N1S(=O)(=O)c1cccc(C(=O)N2Cc3ccccc3CC2C(N)=O)c1` (stereo not shown) was tested, and the “hERG current change (%, negative = inhibition) at 1uM” value was 3.32%. In the case of `COCCNC(=O)CN1C(=O)NC2(CCOc3ccccc32)C1=O` (stereo not shown), the “hERG current change (%, negative = inhibition) at 1uM” value was 15.7%. With `Cc1ccccc1OCC(=O)Nc1nnc(S(=O)(=O)N2CCCC2)s1` the “hERG current change (%, negative = inhibition) at 1uM” value was 23.6%. With `O=C(c1ccc2c(c1)OCCO2)N1CCCCC1` the “hERG current change (%, negative = inhibition) at 1uM” value was 6.39%. In the case of `COc1ccccc1C(=O)Nc1cccc(C(=O)N2CCOCC2)c1`, the “hERG current change (%, negative = inhibition) at 1uM” value was 31.3%. For `Cc1ccc(CN2CCN(Cc3cn[nH]c3-c3ccccc3)CC2CCO)o1` (stereo not shown), the “hERG current change (%, negative = inhibition) at 1uM” value was 12.2%. With `COc1ccccc1OCc1cc(C(=O)NCc2ccc(N3CCCC3=O)cc2)no1` the “hERG current change (%, negative = inhibition) at 1uM” value was 20.3%. `NCCCC[C@H]1CN=C(N)N1CCc1cccc2ccccc12` was tested, and the “hERG current change (%, negative = inhibition) at 1uM” value was 9.97%. With `O=C(Nc1cc(Oc2ccccc2)cc([N+](=O)[O-])c1)C12CC3CC(C1)CC(n1cnc(Cl)n1)(C3)C2` the “hERG current change (%, negative = inhibition) at 1uM” value was 16.5%. `COc1ccc(CCN2CC(C(=O)NCCc3ccc(C(F)(F)F)cc3)CCC2=O)cc1` (stereo not shown) was tested, and the “hERG current change (%, negative = inhibition) at 1uM” value was -2.34%. For `Cc1ccccc1NC(=S)N(Cc1ccco1)C(C)c1ccccn1` (stereo not shown), the “hERG current change (%, negative = inhibition) at 1uM” value was 10.9%. In the case of `CC(=O)Nc1ccc2nc(-c3ccccc3)cn2c1`, the “hERG current change (%, negative = inhibition) at 1uM” value was 15.1%. With `NC(=O)c1ccc(-c2nnc(Nc3ccc(S(N)(=O)=O)cc3)c3ccccc23)cc1` the “hERG current change (%, negative = inhibition) at 1uM” value was 20.6%. In the case of `Fc1ccc(-c2csc3ncnc(Nc4ccc(N5CCOCC5)cc4)c23)cc1`, the “hERG current change (%, negative = inhibition) at 1uM” value was 16.8%. With `Cc1nc(-c2ccccc2OC(F)(F)F)[nH]c(=O)c1Cl` the “hERG current change (%, negative = inhibition) at 1uM” value was 6.89%. In the case of `CCO[C@H]1OC(C(=O)N2CCN(Cc3ccc4c(c3)OCO4)CC2)=C[C@@H](C)[C@@H]1CCCO`, the “hERG current change (%, negative = inhibition) at 1uM” value was 11.1%. With `CC(OC(=O)Cc1cccc(C(F)(F)F)c1)C(=O)Nc1ccc(Cl)cn1` (stereo not shown) the “hERG current change (%, negative = inhibition) at 1uM” value was 6.82%. With `COc1ccc(C(=O)NC(=S)Nc2ccc3oc(=O)ccc3c2)cc1` the “hERG current change (%, negative = inhibition) at 1uM” value was 7.97%. `Cc1noc(C)c1CSc1nnc(-c2c[nH]c3ccccc23)n1-c1ccc(Cl)cc1` was tested, and the “hERG current change (%, negative = inhibition) at 1uM” value was 12.4%. For `C=CCn1c(C)cc(C(=O)COc2ccc(C)nc2[N+](=O)[O-])c1C`, the “hERG current change (%, negative = inhibition) at 1uM” value was 7.36%. `CCN(CC)CCNC(=O)CS(=O)Cc1nc(-c2ccc(C)cc2)oc1C` (stereo not shown) was tested, and the “hERG current change (%, negative = inhibition) at 1uM” value was 13.7%. For `CCSc1sccc1C1C(C#N)=C(N)N(c2cccnc2)C2=C1C(=O)CC(C)(C)C2` (stereo not shown), the “hERG current change (%, negative = inhibition) at 1uM” value was -21.3%. With `O=S(=O)(NCCCCCNS(=O)(=O)c1c(F)cccc1F)c1ccc2c(c1)OCCO2` the “hERG current change (%, negative = inhibition) at 1uM” value was 12.9%. `COc1ccc(C(=O)/C=C(\N)C(F)(F)F)c(O)c1` was tested, and the “hERG current change (%, negative = inhibition) at 1uM” value was -0.193%. In the case of `Cc1ccc(C)c(NC(=O)CN(C)C(=O)c2ccc(-c3cccc(C(F)(F)F)c3)o2)c1`, the “hERG current change (%, negative = inhibition) at 1uM” value was 13.3%. In the case of `Cc1nc(/C(N)=N/OC(=O)c2c(-c3ccccc3Cl)noc2C)cs1`, the “hERG current change (%, negative = inhibition) at 1uM” value was 9.06%. `CN(C)CC1CCCCC1OC(=O)/C=C/c1ccc(Cl)cc1Cl.Cl` (stereo not shown) was tested, and the “hERG current change (%, negative = inhibition) at 1uM” value was 2.15%. For `CCOC(=O)CC(=O)CSc1nc2ccc(C)cc2cc1C#N`, the “hERG current change (%, negative = inhibition) at 1uM” value was 2.16%. In the case of `CCOc1ccc(N(C)c2ccc(/C=C3/SC(=S)NC3=O)cc2)cc1`, the “hERG current change (%, negative = inhibition) at 1uM” value was 9.04%.
